Measurements published in patent publication US20220389118A1 (Chugai, published 2022).
Values belong to the binder of their own block, whether it stands above or below them.

Columns and labels:
[1] = target: T1, mouse FcγRI extracellular domain with C-terminal His tag (mouse, UniProt P26151 25-297); assay: SPR, antibody on protein L, mFcγR as analyte, 25 C
T1 construct: extracellular domain; also called mFcγRI; mFc γ R I
T1 sequence (looked up): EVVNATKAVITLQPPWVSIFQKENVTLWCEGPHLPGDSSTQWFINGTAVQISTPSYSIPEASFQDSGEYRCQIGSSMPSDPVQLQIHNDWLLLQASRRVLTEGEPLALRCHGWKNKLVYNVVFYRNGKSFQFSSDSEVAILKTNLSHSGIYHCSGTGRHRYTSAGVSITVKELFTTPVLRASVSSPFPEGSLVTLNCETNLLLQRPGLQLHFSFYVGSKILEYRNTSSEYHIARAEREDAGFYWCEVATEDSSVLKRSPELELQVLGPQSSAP

[2] = target: T2, mouse FcγRIIb extracellular domain with C-terminal His tag (mouse, UniProt P08101 30-210); assay: SPR, antibody on protein L, mFcγR as analyte, 25 C
T2 construct: extracellular domain; also called mFcγRIIb; mFcγRII
T2 sequence (looked up): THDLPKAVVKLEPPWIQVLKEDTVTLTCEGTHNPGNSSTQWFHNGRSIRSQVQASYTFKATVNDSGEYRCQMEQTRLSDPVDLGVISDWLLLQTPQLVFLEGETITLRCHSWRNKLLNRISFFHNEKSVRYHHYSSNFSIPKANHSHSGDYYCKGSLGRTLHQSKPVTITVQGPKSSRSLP

[3] = target: T3, mouse FcγRIII extracellular domain with C-terminal His tag (mouse, UniProt P08508 31-215); assay: SPR, antibody on protein L, mFcγR as analyte, 25 C
T3 construct: extracellular domain; also called mFcγRIII; mFc γ R III
T3 sequence (looked up): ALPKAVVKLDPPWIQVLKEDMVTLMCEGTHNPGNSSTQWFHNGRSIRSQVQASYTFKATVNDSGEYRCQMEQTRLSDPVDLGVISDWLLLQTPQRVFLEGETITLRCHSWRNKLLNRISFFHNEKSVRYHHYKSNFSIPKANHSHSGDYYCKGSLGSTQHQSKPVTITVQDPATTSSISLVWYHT

[4] = target: T4, mouse FcγRIV extracellular domain with C-terminal His tag (mouse, UniProt A0A0B4J1G0 21-203); assay: SPR, antibody on protein L, mFcγR as analyte, 25 C
T4 construct: also called mFcγRIV; mFc γ R IV
T4 sequence: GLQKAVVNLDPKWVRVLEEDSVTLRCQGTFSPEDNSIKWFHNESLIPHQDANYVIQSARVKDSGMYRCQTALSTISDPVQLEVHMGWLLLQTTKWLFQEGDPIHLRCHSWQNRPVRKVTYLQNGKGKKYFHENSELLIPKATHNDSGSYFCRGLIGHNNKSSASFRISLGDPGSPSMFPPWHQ

[5] = target: T2, mouse FcγRIIb extracellular domain with …; assay: SPR (Biacore)
[6] = target: T2, mouse FcγRIIb extracellular domain with …; assay: SPR, Ab on protein L, mFcγR analyte, 25 C

binding result [1]: no binding
binding result [2]: no binding
binding result [3]: no binding
binding result [4]: no binding
B1: VH3/L(WT)-IgG1-F760 (antibody)
heavy: QVQLQESGPGLVKPSETLSLTCAVSGHSISHDHAWSWVRQPPGEGLEWIGFISYSGITNYNPSLQGRVTISRDNSKNTLYLQMNSLRAEDTAVYYCARSLARTTAMDYWGEGTLVTVSS[sequence of human IgG1 constant region with L235R S239K (EU numbers) omitted]
light: DIQMTQSPSSLSASVGDRVTITCRASQDISSYLNWYQQKPGKAPKLLIYYTSRLHSGVPSRFSGSGSGTDFTFTISSLQPEDIATYYCQQGNTLPYTFGQGTKVEIKRTVAAPSVFIFPPSDEQLKSGTASVVCLLNNFYPREAKVQWKVDNALQSGNSQESVTEQDSKDSTYSLSSTLTLSKADYEKHKVYACEVTHQGLSSPVTKSFNRGEC
notes: VH3-IgG1 with L235R and S239K (EU numbering); copies: 2 + 2

Kd [5]: 10 nM
Kd [6]: 8.5 nM
B2: VH3/L(WT)-IgG1-F1022 (antibody)
heavy: QVQLQESGPGLVKPSETLSLTCAVSGHSISHDHAWSWVRQPPGEGLEWIGFISYSGITNYNPSLQGRVTISRDNSKNTLYLQMNSLRAEDTAVYYCARSLARTTAMDYWGEGTLVTVSS[sequence of human IgG1 constant region with K326D L328Y (EU numbers) omitted]
light: B1 light
notes: VH3-IgG1 with K326D and L328Y (EU numbering); copies: 2 + 2
